Results as given in PubChem BioAssay AID2202238 (Ras Initiative Chemistry Research Team, Frederick National …, 2025).
The other results are listed elsewhere or left out. The main result of the screen is listed elsewhere. These columns were measured beside it and carry no call.

Molecular target: GTPase KRas (Homo sapiens) (UniProt P01116)
Assay: Cysteine mutants labelled by reactive fragments (mass read-out) (AID 2202238)
Parameters: protein at 5 µM with 500 µM competing thiol for 1.5 h
Conditions: KRAS G12D cysteine mutants, disulfide tethering, MALDI-TOF labeling, stronger effect = higher value, fragment at 500 µM
[1] = measured here: G75C mutant labeling
[2] = measured here: H94C mutant labeling
[3] = measured here: I36C mutant labeling
[4] = measured here: L120C mutant labeling
[5] = measured here: M67C mutant labeling
[6] = measured here: M72C mutant labeling
[7] = measured here: N86C mutant labeling
[8] = measured here: P121C mutant labeling
[9] = measured here: S122C mutant labeling
[10] = measured here: S136C mutant labeling
[11] = measured here: G60C mutant labeling
[12] = measured here: N26C mutant labeling

Sequence of UniProt P01116 (P01116 whole entry, looked up, the tested form may be a part): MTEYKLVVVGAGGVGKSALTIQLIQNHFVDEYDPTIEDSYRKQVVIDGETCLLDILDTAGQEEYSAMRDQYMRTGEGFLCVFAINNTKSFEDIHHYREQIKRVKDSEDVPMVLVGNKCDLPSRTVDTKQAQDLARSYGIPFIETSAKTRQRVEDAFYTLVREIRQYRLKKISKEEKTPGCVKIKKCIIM

Structure (SMILES) | percent labeling [1] | percent labeling [2] | percent labeling [3] | percent labeling [4] | percent labeling [5] | percent labeling [6] | percent labeling [7] | percent labeling [8] | percent labeling [9] | percent labeling [10] | percent labeling [11] | percent labeling [12]
Cc1nn(C)cc1CN(CCO)C(=O)CCS | 8.1% | 24.4% | 35.5% | 25.8% | 33.5% | 11.7% | 17.8% | 27.5% | 25.7% | 47.5% |  | 
CC(C)(C(=O)NCCS)c1cccc(Cl)c1F | 27.4% | 37% | 24.3% | 38.5% | 33.5% | 62.8% | 24.6% | 26.2% | 27% | 41.2% | 59.4% | 36.6%
Cc1ccc(C2CCCN2C(=O)CCS)s1 (configuration not stated) | 20% | 40.8% | 30.7% | 27.3% | 32.7% | 37.4% | 23.9% | 32.6% | 28.7% | 55.2% |  | 
CCn1cc(NC(=O)CCS)c(C(=O)NCCc2ccccc2)n1 | 18.5% | 15% | 14.6% | 10.4% | 20.4% | 30.4% | 20.8% | 13.4% | 10% | 22.7% |  | 
Cc1cc(C(=O)NCCS)sc1-c1ccccc1 | 12.3% | 15.7% | 8.2% | 16.5% | 9% | 54.9% | 12.4% | 13.5% | 8.9% | 18% | 27.2% | 24.4%
O=C(CCS)NCc1nc(-c2cccs2)n[nH]1 | 58.3% | 28.3% | 43.6% | 44.3% | 47.5% | 26.8% | 17.4% | 33% | 33.7% | 56.7% |  | 
CN(Cc1ccccc1)C(=O)NCCC(=O)NCCS | 13.2% | 40.4% | 30.9% | 40.4% | 45.7% | 29.9% | 25.3% | 36.1% | 32.8% | 49.6% | 35.6% | 31.9%
CC(C(=O)NCCS)C1OCCc2sccc21 (configuration not stated) | 22.5% | 37.9% | 27.5% | 39.7% | 36.5% | 34.2% | 27.6% | 35.7% | 30.8% | 49.1% | 58.1% | 38.9%
O=C(NCCS)c1cc(N2CCCC2=O)ccc1F | 30% | 42.4% | 31.9% | 49.7% | 39.6% | 53.1% | 38.6% | 33.3% | 37.2% | 64.4% | 39.7% | 47.5%
O=C(CCS)NC1CCN(C(=O)CCc2ccccc2)CC1 | 14.7% | 36.9% | 57.3% | 27.8% | 52.5% | 26.9% | 25.8% | 36% | 35.3% | 59.4% |  | 
O=C(CCS)Nc1cnn(-c2cnc3ccccc3n2)c1 | 0% | 8.4% | 19.7% | 9.6% | 7.8% | 41.4% | 7.4% | 7% | 7.7% | 17.4% |  | 
O=C(CCS)N1CCOCC1c1noc(-c2ccccc2)n1 (configuration not stated) | 16% | 27.7% | 29.1% | 34.1% | 45.6% | 36.4% | 17.8% | 42.8% | 21.1% | 44.9% |  | 
O=C(NCCS)C1CCCCN1C(=O)C1CCCC1 (configuration not stated) | 14.6% | 41.5% | 29.6% | 47.4% | 34.9% | 30.4% | 27.7% | 34.5% | 33.2% | 51.3% | 36.7% | 33.6%
COc1ccc2[nH]c(C)c(C(=O)NCCS)c2c1 | 18.4% | 42.6% | 16.7% | 43.5% | 27.2% | 47.5% | 19% | 19.1% | 19.6% | 47.3% | 32.6% | 43.5%
Cc1cc2c(cc(C(=O)NCCS)n2CC(F)(F)F)s1 | 9.5% | 10.3% | 8.3% | 6.9% | 7.3% | 44.2% | 8.7% | 7.8% | 4.1% | 11% | 17.7% | 25.6%
O=C(NCCS)C1CCCN1C(=O)Cc1ccc2ccccc2c1 (configuration not stated) | 22.1% | 32% | 21.3% | 36% | 49.4% | 35.3% | 18.5% | 26.5% | 16.7% | 33.3% | 51.3% | 36.7%
CC(C)(COc1ncccc1Br)NC(=O)CCS | 17.7% | 32% | 28.9% | 18.5% | 38.4% | 38.7% | 25.3% | 26% | 24% | 52.7% |  | 
O=C(NCCS)[C@@H]1OCCO[C@@H]1C(F)(F)F | 17.6% | 35% | 19.7% | 42.1% | 28% | 20.2% | 42.9% | 31.1% | 31.8% | 37.6% | 25.3% | 33.2%
Cc1sc(=O)n(CCC(=O)NCCS)c1C | 11.6% | 25.4% | 28.1% | 29% | 25.4% | 18% | 19.9% | 28.5% | 22.8% | 38.7% | 29.2% | 29.2%
CN(Cc1ccc(-c2ccc(Br)cc2)o1)C(=O)CCS | 16.3% | 67.7% | 17.9% | 13.1% | 16.7% | 43.5% | 16.9% | 19.2% | 6% | 27.9% |  | 
CCc1ccc(-c2csc(NC(=O)CCS)n2)s1 | 17.1% | 25.9% | 21.1% | 16.8% | 14.5% | 40.3% | 21.9% | 18.5% | 10.5% | 39.4% |  | 
O=C(CN1CCC(c2ccccc2)NC1=O)NCCS (configuration not stated) | 13.8% | 34.4% | 25.2% | 45.5% | 38.2% | 36.6% | 23% | 33.2% | 33.7% | 47.1% | 35.7% | 40.1%
Cc1nc2c(C#N)c[nH]n2c(=O)c1CC(=O)NCCS | 7.3% | 25.1% | 16% | 46.4% | 19% | 7% | 22.7% | 24.2% | 31.8% | 25.1% | 20% | 26.9%
Cn1ccnc1N1CCC(C(=O)NCCS)C1 (configuration not stated) | 4.7% | 8.6% | 6.2% | 8.7% | 10.1% | 0% | 3.8% | 7.6% | 5.5% | 16.7% | 8% | 9.8%
CN(C)CCN(Cc1ccco1)C(=O)CCS | 15.6% | 37.3% | 50.5% | 29.1% | 42.4% | 33.3% | 32.8% | 33.1% | 32% | 53.9% |  | 
O=C(CCS)NCc1nnc2n1CCC(C(F)(F)F)C2 (configuration not stated) | 6.4% | 24.4% | 35.2% | 29.6% | 32.1% | 9.2% | 17.8% | 28.3% | 28.9% | 41.2% |  | 
O=C(CN1C(=O)COc2cc(Br)ccc21)NCCS | 12.1% | 18.9% | 11.9% | 25.9% | 16.6% | 29.4% | 12.1% | 11.7% | 9% | 17.7% | 35.9% | 26%
O=C(CCS)N1CCCC(Cn2cnc3ccccc32)C1 (configuration not stated) | 20.8% | 44.3% | 46.7% | 35% | 49.4% | 29.8% | 26.9% | 32% | 30% | 61.7% |  | 
Cn1nnnc1N1CCC(NC(=O)CCS)CC1 | 7.5% | 31.4% | 39.2% | 30.3% | 31.3% | 10.7% | 19.3% | 33% | 29.9% | 51.1% |  | 
COc1ccc(-c2nc(CC(=O)NCCS)cs2)cc1OC | 15.6% | 24.2% | 18.4% | 27.9% | 16.9% | 32% | 11.4% | 14.9% | 9.7% | 19.4% | 34.6% | 30.6%
